# Out of some 310,000 compounds screened, about 2,200 (0.71%) showed an effect of 50% or more. Effects have a minus sign here. Some of the results follow.
# Molecular target: human ether-à-go-go-related gene (hERG) potassium channel (human, UniProt Q12809)
# Test: primary screen, population patch clamp on CHO cells stably expressing hERG
# human ether-à-go-go-related gene (hERG) potassium channel, sequence (Q12809 whole entry, looked up): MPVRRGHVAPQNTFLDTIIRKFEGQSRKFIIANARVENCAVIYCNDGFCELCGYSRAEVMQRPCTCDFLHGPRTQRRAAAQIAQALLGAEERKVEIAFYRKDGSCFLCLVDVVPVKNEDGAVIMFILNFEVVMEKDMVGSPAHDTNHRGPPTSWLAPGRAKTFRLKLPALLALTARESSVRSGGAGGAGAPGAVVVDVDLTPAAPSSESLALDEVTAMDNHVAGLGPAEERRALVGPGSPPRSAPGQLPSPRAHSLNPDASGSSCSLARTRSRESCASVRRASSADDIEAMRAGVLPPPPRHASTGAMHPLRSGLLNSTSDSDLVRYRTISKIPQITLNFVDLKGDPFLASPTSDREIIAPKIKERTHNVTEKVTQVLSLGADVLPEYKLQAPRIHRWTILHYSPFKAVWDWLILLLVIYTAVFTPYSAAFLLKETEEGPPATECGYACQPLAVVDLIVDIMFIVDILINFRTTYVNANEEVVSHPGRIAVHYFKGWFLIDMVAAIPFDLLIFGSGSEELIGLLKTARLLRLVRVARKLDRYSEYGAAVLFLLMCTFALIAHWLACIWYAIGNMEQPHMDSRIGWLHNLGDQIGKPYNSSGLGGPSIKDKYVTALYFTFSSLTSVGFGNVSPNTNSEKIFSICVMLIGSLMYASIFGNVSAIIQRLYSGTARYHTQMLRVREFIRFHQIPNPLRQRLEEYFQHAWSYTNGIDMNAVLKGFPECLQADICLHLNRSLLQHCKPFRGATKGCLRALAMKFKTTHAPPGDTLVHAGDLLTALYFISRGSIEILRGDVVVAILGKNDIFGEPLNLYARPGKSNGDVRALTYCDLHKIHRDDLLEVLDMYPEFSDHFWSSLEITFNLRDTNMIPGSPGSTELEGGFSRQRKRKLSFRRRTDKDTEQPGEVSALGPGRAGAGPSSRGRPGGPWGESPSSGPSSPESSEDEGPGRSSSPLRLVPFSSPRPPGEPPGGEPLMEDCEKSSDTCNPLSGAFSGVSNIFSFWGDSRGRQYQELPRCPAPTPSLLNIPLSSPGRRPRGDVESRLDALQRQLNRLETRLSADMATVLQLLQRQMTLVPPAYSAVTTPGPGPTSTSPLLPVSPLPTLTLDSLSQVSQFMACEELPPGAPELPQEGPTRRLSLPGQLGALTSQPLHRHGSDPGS
row,SMILES,"hERG current change (%, negative = inhibition) at 1uM [%]"
1,Cc1c(N(C)S(=O)(=O)c2cccc(C(=O)NC(C)C)c2)c(=O)n(-c2ccccc2)n1C,22.7
2,COc1ccc(-c2nc3c(c(=O)[nH]c(=O)n3Cc3ccccc3)n2CCO)cc1,14.9
3,O=C(CN(Cc1ccccc1Cl)C(=O)Cn1nnc(-c2cccs2)n1)NCC1CCCO1 (stereo not shown),3.73
4,COCC(=O)N1CCC(Oc2ccc(C(=O)NCc3cc(C(C)C)no3)cc2)CC1,-5.23
5,CCN(CC)S(=O)(=O)c1ccc(Cl)c(NC(=S)NC(=O)C2CCCC2)c1,11.5
6,CCOc1cccc2cc(C(=O)N3CCN(C/C=C/c4ccccc4)CC3)c(=O)oc12,-0.522
7,Cc1nnsc1C(=O)N1CCN(c2ccc(C#N)cn2)CC1,3.48
8,O=C(NCCCN1CCOCC1)c1ccc2c(c1)N(Cc1cccc(Cl)c1)C(=O)CS2,7.31
9,Cc1cccc(C(=O)NCCN2CCOCC2)c1[N+](=O)[O-],6.17
10,NS(=O)(=O)c1ccccc1NC(=O)c1c(O)c2ccccc2[nH]c1=O,11.8
11,CCOc1ccc(S(=O)(=O)NNS(=O)(=O)c2ccc(C)cc2C)cc1,9.15
12,CN1C(=O)CC(C(=O)Nc2ccccc2F)SC1=Nc1ccc2c(c1)OCO2 (stereo not shown),7.97
13,COC(=O)c1ccc(-c2ncc(-c3cccc4ccccc34)o2)cc1,11.8
14,CCOC(=O)N1CCN(S(=O)(=O)c2ccc(C(=O)NNc3nc4c(C)cc(C)cc4s3)cc2)CC1,9.54
15,COc1ccccc1C(CNC(=O)COc1cc(C)ccc1Cl)N1CCCC1 (stereo not shown),-0.736
16,CC(=O)c1cccc(NC(=O)CSc2nc(=O)n(CCN3CCOCC3)c3c2CCC3)c1,-0.182
17,CCOC(=O)C1=C(NC(=S)NC(=O)c2ccccc2)c2ccccc2CC1(C)C,-1.99
18,Cc1c(C(=O)O)sc2nc(SCC(=O)Nc3ccc(S(=O)(=O)NCCCC(=O)O)cc3)[nH]c(=O)c12,12.1
19,NC(N)=N/N=C/c1c(Cl)cccc1Cl,16.7
20,COc1ccc(C2CC(C(F)(F)F)n3nc(C(=O)Nc4ccc5c(c4)OCO5)cc3N2)cc1 (stereo not shown),10.7
21,COc1ccc(NC(C#N)c2ccccc2OCc2ccccc2)cc1 (stereo not shown),14.3
22,Cc1cccc(NCc2ccccc2O)c1,12

row,SMILES,"hERG current change (%, negative = inhibition) at 1uM [%]"
1,CCc1oc(C(=O)O)cc1CN(CC)CC.Cl,13.4
2,CC(C)(C)S(=O)(=O)c1cnc2c(-c3ccc(Cl)cc3)cnn2c1N,8.97
3,O=C1CC(N2CCOCC2)C(=O)N1c1ccc(Cl)cc1 (stereo not shown),7.57
4,CCOC(=O)c1sc2cccc(Cl)c2c1N,4.86
5,CCn1c(SCC(=O)N2CCCc3ccccc32)nc2c1c(=O)n(C)c(=O)n2C,-2.02
6,COc1ccc(NC(C)=O)cc1S(=O)(=O)Nc1ccc(OCc2ccccc2)cc1,12.4
7,CCn1c(SCC(=O)Nc2nccs2)nnc1-c1ccccc1,3.94
8,CC(=O)N1CCOc2ccc(S(=O)(=O)N3CC(C)CC(C)C3)cc21 (stereo not shown),4.86
9,CC12CCCCC1=NC(c1ccc(Br)cc1)N2O (stereo not shown),-2.43
10,S=c1[nH]nc(-c2ccccc2)n1/N=C/c1cccs1,8.87
11,COc1c(Cl)cc(Cl)cc1CNCCO.Cl,6.59
12,Cc1ccc(NC(=O)CN2C(=O)c3ccccc3C2=O)cc1,13.8
13,O=C(Nc1cccc(-c2cn3ccccc3n2)c1)c1cc2ccccc2oc1=O,17
14,CCOc1ccc(C(=O)C(c2ccccc2)N2CCOCC2)cc1.Cl (stereo not shown),3.32
15,CN1C(=O)C(C)(C)c2cc(S(=O)(=O)N3CCCC3C(=O)NCc3ccc(F)cc3)ccc21 (stereo not shown),11.5
16,CCOc1ccc(Oc2cc(N)cc([N+](=O)[O-])c2)cc1,-0.25
17,CC(C)(C)OC(=O)N1CCC[C@H]1c1nnc(SCc2c(F)cccc2Cl)o1,8.57
18,CCOc1c2ccc(C(=O)NC3CCCc4ccccc43)cc2nn1CC (stereo not shown),16.1
19,COc1ccc(/C(N)=N/OC(=O)Oc2ccccc2)cc1,12.5
20,COc1ccc(C(=O)Nc2ccc(S(=O)(=O)NCc3ccco3)cc2)cc1OC,-0.151
21,Cc1nnc(N/N=C\c2ccc(-c3ccccc3[N+](=O)[O-])o2)n1N,-1.87

# Source: paper PMC4336329 (PLoS ONE, 2015)
